Measured values published in publication PMC9650030, “The RNA repair proteins RtcAB regulate transcription activator RtcR via its CRISPR-associated Rossmann fold domain” (iScience, 2022).
No constants are given. Whether binding was seen depends on the method and setting. Some results given as binding are weak or reduced against the parent protein; the word gives no strength. Where a sequence is shown, tags or fusion partners need not be part of it.

The chains behind the UniProt entries cited, without tags or fusion partners.
UniProt P37931: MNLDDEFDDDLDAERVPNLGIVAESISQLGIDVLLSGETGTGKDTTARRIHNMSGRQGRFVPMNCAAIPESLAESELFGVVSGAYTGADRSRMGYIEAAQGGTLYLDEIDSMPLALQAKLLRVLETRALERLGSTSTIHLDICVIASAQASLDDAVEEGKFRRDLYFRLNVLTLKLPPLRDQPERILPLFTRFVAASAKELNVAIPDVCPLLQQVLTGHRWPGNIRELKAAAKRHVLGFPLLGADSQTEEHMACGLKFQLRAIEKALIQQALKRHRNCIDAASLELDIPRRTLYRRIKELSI

T1: RtcR CARF domain on its own, T18/T25 fusion (bacterial two-hybrid; RtcR_(1-186)) (Escherichia coli) (UniProt P38035)
T1 sequence: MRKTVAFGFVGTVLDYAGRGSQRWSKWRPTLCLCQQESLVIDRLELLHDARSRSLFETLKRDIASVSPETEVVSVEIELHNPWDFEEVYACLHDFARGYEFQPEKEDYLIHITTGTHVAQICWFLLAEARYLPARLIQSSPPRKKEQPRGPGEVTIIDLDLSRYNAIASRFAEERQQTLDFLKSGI

T2: RtcR_(ΔCARF), T18/T25 fusion (bacterial two-hybrid; RtcR_(187-532)) (Escherichia coli) (UniProt P38035)
T2 sequence: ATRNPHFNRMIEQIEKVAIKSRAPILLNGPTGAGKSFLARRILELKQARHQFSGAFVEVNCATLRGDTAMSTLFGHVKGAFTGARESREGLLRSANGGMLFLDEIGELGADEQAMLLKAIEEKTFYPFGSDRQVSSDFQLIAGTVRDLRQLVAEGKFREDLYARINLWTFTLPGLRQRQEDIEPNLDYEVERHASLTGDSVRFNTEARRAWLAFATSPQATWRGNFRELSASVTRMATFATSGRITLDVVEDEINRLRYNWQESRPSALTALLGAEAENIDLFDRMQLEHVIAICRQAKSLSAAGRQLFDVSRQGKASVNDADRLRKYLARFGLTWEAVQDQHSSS

T3: Full-length RtcR, T18/T25 fusion (bacterial two-hybrid) (Escherichia coli) (UniProt P38035)
T3 sequence: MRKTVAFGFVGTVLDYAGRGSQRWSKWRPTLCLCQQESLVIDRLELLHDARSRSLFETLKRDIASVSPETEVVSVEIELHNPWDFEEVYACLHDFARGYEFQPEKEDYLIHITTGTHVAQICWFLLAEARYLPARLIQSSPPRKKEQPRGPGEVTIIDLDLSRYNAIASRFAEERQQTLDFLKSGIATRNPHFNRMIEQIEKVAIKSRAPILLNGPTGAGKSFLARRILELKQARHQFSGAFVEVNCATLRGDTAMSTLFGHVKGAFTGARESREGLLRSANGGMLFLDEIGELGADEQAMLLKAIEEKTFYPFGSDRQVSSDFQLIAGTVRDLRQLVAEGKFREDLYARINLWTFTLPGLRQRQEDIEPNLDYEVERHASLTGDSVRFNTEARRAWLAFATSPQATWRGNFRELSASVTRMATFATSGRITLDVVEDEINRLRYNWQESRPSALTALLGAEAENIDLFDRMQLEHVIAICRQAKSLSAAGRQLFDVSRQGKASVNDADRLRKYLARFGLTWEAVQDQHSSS

T4: Full-length RtcB, T18/T25 fusion (bacterial two-hybrid) (Escherichia coli) (UniProt P46850)
T4 sequence: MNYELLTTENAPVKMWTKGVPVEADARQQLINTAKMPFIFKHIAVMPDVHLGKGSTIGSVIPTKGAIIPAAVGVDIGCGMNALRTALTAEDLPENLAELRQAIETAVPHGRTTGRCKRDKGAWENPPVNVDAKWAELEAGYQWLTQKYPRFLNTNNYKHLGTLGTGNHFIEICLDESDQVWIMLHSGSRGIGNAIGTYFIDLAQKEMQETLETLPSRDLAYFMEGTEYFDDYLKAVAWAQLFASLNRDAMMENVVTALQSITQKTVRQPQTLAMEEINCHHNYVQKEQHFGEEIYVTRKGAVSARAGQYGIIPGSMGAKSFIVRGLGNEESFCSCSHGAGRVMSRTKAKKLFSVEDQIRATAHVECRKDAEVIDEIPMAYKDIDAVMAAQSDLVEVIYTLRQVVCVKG

T5: His-RtcB (N-terminal his-tagged RNA ligase RtcB) (Escherichia coli) (UniProt P46850)
T5 sequence: T4 sequence

B1: Full-length RtcB, T18/T25 fusion (bacterial two-hybrid) (enzyme, UniProt P46850 1-408)
chain: T4 sequence
B2: RtcR_(ΔCARF), T18/T25 fusion (bacterial two-hybrid; RtcR_(187-532)) (domain or fragment, UniProt P38035 187-532)
chain: T2 sequence
B3: Full-length RtcA, T18/T25 fusion (bacterial two-hybrid) (enzyme, UniProt P46849 1-338)
chain: MKRMIALDGAQGEGGGQILRSALSLSMITGQPFTITSIRAGRAKPGLLRQHLTAVKAATEICGATVEGAELGSQRLLFRPGTVRGGDYRFAIGSAGSCTLVLQTVLPALWFADGPSRVEVSGGTDNPSAPPADFIRRVLEPLLAKIGIHQQTTLLRHGFYPAGGGVVATEVSPVASFNTLQLGERGNIVQMRGEVLLAGVPRHVAEREIATLAGSFSLHEQNIHNLPRDQGPGNTVSLEVESENITERFFVVGEKRVSAEVVAAQLVKEVKRYLASTAAVGEYLADQLVLPMALAGAGEFTVAHPSCHLLTNIAVVERFLPVRFSLIETDGVTRVSIE
B4: RtcA expressed in trans (third protein of the tripartite two-hybrid assay) (enzyme, UniProt P46849 1-338)
chain: B3 chain
B5: Full-length RtcR, T18/T25 fusion (bacterial two-hybrid) (protein, UniProt P38035 1-532)
chain: T3 sequence
B6: His-RtcA (N-terminal his-tagged RNA 3'-terminal phosphate cyclase RtcA) (enzyme, Escherichia coli, UniProt P46849 1-338, looked up)
chain: B3 chain
notes: RtcA, RNA 3'-terminal phosphate cyclase, Escherichia coli; not shown: His tag, N-terminal, kept

Experiments:
[1] = target: T1, RtcR CARF domain on its own, T18/T25 fusion (bacterial two-hybrid; RtcR_(1-186)) (Escherichia coli); assay: two-hybrid; tripartite (three-hybrid) BACTH: T18/T25 pair plus the third Rtc protein expressed in trans (RtcB from pBAD18cm for RtcR-RtcA pairs; RtcA for RtcR-RtcB and CARF-RtcB pairs); β-galactosidase read-out
[2] = target: T1, RtcR CARF domain on its own, T18/T25 fusion (bacterial two-hybrid; RtcR_(1-186)) (Escherichia coli); assay: two-hybrid; bacterial adenylate cyclase two-hybrid (BACTH) in E. coli BTH101; pairs of N- or C-terminal T18/T25 fusions; β-galactosidase read-out against T18 and T25 alone
[3] = target: T2, RtcR_(ΔCARF), T18/T25 fusion (bacterial two-hybrid; RtcR_(187-532)) (Escherichia coli); assay: as above
[4] = target: T3, Full-length RtcR, T18/T25 fusion (bacterial two-hybrid) (Escherichia coli); assay: two-hybrid; tripartite (three-hybrid) BACTH: T18/T25 pair plus the third Rtc protein expressed in trans (RtcB from pBAD18cm for RtcR-RtcA pairs; RtcA for RtcR-RtcB and CARF-RtcB pairs); β-galactosidase read-out
[5] = target: T3, Full-length RtcR, T18/T25 fusion (bacterial two-hybrid) (Escherichia coli); assay: two-hybrid; bacterial adenylate cyclase two-hybrid (BACTH) in E. coli BTH101; pairs of N- or C-terminal T18/T25 fusions; β-galactosidase read-out against T18 and T25 alone
[6] = target: T4, Full-length RtcB, T18/T25 fusion (bacterial two-hybrid) (Escherichia coli); assay: as above
[7] = target: HrpS, T18/T25 fusion (bacterial two-hybrid) (Pseudomonas syringae) (UniProt P37931); assay: as above
[8] = target: T5, His-RtcB (N-terminal his-tagged RNA ligase RtcB) (Escherichia coli); assay: SEC; Superdex 200 (10 by 300 mm); proteins at equimolar concentrations (20 μM); fractions checked by SDS-PAGE and immunoblotting; both purified

| Binder | binding [1] | binding [2] | binding [3] | binding [5] | other results |
| --- | --- | --- | --- | --- | --- |
| B1 | no binding (condition: with RtcA expressed in trans) | binds | no binding | – | – |
| B2 | – | – | binds | – | – |
| B3 | – | binds | no binding | binds | binding [4]: binds; binding [6]: no binding; binding [7]: no binding |
| B4 | binds | – | – | – | – |
| B5 | – | – | – | binds | – |
| B6 | – | – | – | – | binding [8]: no binding (tested: 20 μM) |
